# From patent US20010044437A1, “Methods for reducing uric acid levels” (priority 2000, published 2001)
# This continues a long series; more values of the same kind are listed elsewhere.
# Test system: serum uric acid
# Test: Serum uric acid during 28-day once-daily oral dosing, placebo-controlled study in 48 subjects (Example 34)
# Assay type: in vivo, human
# Description: In another study, 48 subjects were divided into four groups, A, B, C and D, and administered the noted amount of the compound of Example 3. Each group was composed of 12 subjects of whom 9 received the compound and 3 received placebo. The non-placebo members of group A received 50 mg of compound, administered orally once a day for 28 days as a single 50 mg tablet. The non-placebo members of group B received 200 mg of compound administered orally once a day for 28 days as a single 200 mg tablet. The non-placebo members of group C received 500 mg of compound administered orally once a day for 28 days as two 50 mg tablets and two 200 mg tablets. The non-placebo members of group D received 800 mg of compound administered orally once a day for 28 days as four 200 mg tablets. The 3 placebo members of each group, received an amount of placebo, as a tablet, equivalent to the amount of test compound—50 mg placebo for group A, 200 mg placebo for group B, 500 mg placebo for group C and 800 mg placebo for group D. Each subject received a single dose of either compound or placebo for 28 days. The subjects were confined at the clinical site beginning the day before dose administration until 72 hours after the final dose administration on Day 28 and returned for an outpatient visit on Day 35.
# Uric acid levels were measured prior to beginning the study (screening), on the day immediately prior to commencement of the study (day-1), and then as noted in the table. Hours indicates the time since the last dose was administered. For example, Day 7, 0 hour indicates the time the serum uric acid level at the time the dose was administered and Day 7, 2 hour indicates the uric acid level two hours after the adminstration that day. Further, the Day 30, 60 hour level is the serum uric acid level measured 60 hours (on Day 30) after the last dose was administered on Day 28. The uric acid levels are presented in mg/dL as a mean of all subjects in each group.
smiles,measurement,setting,value
"O=C(O)Cn1cc(Cc2nc3c(F)c(F)cc(F)c3s2)c2ccccc21 [Example 3, 3-(4,5,7-Trifluorobenzothiazol-2-yl)methyl-indole-N-acetic Acid]",Uric Acid Level (mean of all subjects in each group),"group B 200 mg orally once a day, Day 34 144 Hour after last dose on Day 28",4.66 mg/dL
same,Uric Acid Level (mean of all subjects in each group),"group B 200 mg orally once a day, Day 35 (last dose Day 28)",5.03 mg/dL
same,Uric Acid Level (mean of all subjects in each group),"group B 200 mg orally once a day, Day-1 (before dosing)",5.16 mg/dL
same,Uric Acid Level (mean of all subjects in each group),"group B 200 mg orally once a day, Screening (before dosing)",5.51 mg/dL
same,Uric Acid Level (mean of all subjects in each group),"group C 500 mg orally once a day, Day 14 0 Hour",2.10 mg/dL
same,Uric Acid Level (mean of all subjects in each group),"group C 500 mg orally once a day, Day 14 0.5 Hour",2.10 mg/dL
same,Uric Acid Level (mean of all subjects in each group),"group C 500 mg orally once a day, Day 14 1 Hour",2.02 mg/dL
same,Uric Acid Level (mean of all subjects in each group),"group C 500 mg orally once a day, Day 14 2 Hour",1.92 mg/dL
same,Uric Acid Level (mean of all subjects in each group),"group C 500 mg orally once a day, Day 14 3 Hour",1.86 mg/dL
same,Uric Acid Level (mean of all subjects in each group),"group C 500 mg orally once a day, Day 14 4 Hour",1.82 mg/dL
same,Uric Acid Level (mean of all subjects in each group),"group C 500 mg orally once a day, Day 14 6 Hour",2.03 mg/dL
same,Uric Acid Level (mean of all subjects in each group),"group C 500 mg orally once a day, Day 14 8 Hour",1.96 mg/dL
same,Uric Acid Level (mean of all subjects in each group),"group C 500 mg orally once a day, Day 14 10 Hour",1.86 mg/dL
same,Uric Acid Level (mean of all subjects in each group),"group C 500 mg orally once a day, Day 14 12 Hour",1.78 mg/dL
same,Uric Acid Level (mean of all subjects in each group),"group C 500 mg orally once a day, Day 14 16 Hour",1.73 mg/dL
same,Uric Acid Level (mean of all subjects in each group),"group C 500 mg orally once a day, Day 14 24 Hour",2.13 mg/dL
same,Uric Acid Level (mean of all subjects in each group),"group C 500 mg orally once a day, Day 21 0 Hour",2.32 mg/dL
same,Uric Acid Level (mean of all subjects in each group),"group C 500 mg orally once a day, Day 28 0 Hour",2.27 mg/dL
same,Uric Acid Level (mean of all subjects in each group),"group C 500 mg orally once a day, Day 28 0.05 Hour",2.28 mg/dL
same,Uric Acid Level (mean of all subjects in each group),"group C 500 mg orally once a day, Day 28 1 Hour",2.26 mg/dL
same,Uric Acid Level (mean of all subjects in each group),"group C 500 mg orally once a day, Day 28 2 Hour",2.18 mg/dL
same,Uric Acid Level (mean of all subjects in each group),"group C 500 mg orally once a day, Day 28 3 Hour",2.09 mg/dL
same,Uric Acid Level (mean of all subjects in each group),"group C 500 mg orally once a day, Day 28 4 Hour",2.04 mg/dL
same,Uric Acid Level (mean of all subjects in each group),"group C 500 mg orally once a day, Day 28 6 Hour",2.36 mg/dL
same,Uric Acid Level (mean of all subjects in each group),"group C 500 mg orally once a day, Day 28 8 Hour",2.23 mg/dL
same,Uric Acid Level (mean of all subjects in each group),"group C 500 mg orally once a day, Day 28 10 Hour",2.32 mg/dL
same,Uric Acid Level (mean of all subjects in each group),"group C 500 mg orally once a day, Day 28 12 Hour",2.20 mg/dL
same,Uric Acid Level (mean of all subjects in each group),"group C 500 mg orally once a day, Day 28 16 Hour",1.94 mg/dL
same,Uric Acid Level (mean of all subjects in each group),"group C 500 mg orally once a day, Day 28 24 Hour",2.36 mg/dL
same,Uric Acid Level (mean of all subjects in each group),"group C 500 mg orally once a day, Day 29 48 Hour after last dose on Day 28",2.56 mg/dL
same,Uric Acid Level (mean of all subjects in each group),"group C 500 mg orally once a day, Day 30 60 Hour after last dose on Day 28",2.87 mg/dL
same,Uric Acid Level (mean of all subjects in each group),"group C 500 mg orally once a day, Day 31 72 Hour after last dose on Day 28",3.64 mg/dL
same,Uric Acid Level (mean of all subjects in each group),"group C 500 mg orally once a day, Day 32 96 Hour after last dose on Day 28",4.10 mg/dL
same,Uric Acid Level (mean of all subjects in each group),"group C 500 mg orally once a day, Day 33 120 Hour after last dose on Day 28",4.41 mg/dL
same,Uric Acid Level (mean of all subjects in each group),"group C 500 mg orally once a day, Day 34 144 Hour after last dose on Day 28",4.38 mg/dL
same,Uric Acid Level (mean of all subjects in each group),"group C 500 mg orally once a day, Day 35 (last dose Day 28)",4.63 mg/dL
same,Uric Acid Level (mean of all subjects in each group),"group D 800 mg orally once a day, Day 14 0 Hour",2.14 mg/dL
same,Uric Acid Level (mean of all subjects in each group),"group D 800 mg orally once a day, Day 14 0.5 Hour",2.11 mg/dL
same,Uric Acid Level (mean of all subjects in each group),"group D 800 mg orally once a day, Day 14 1 Hour",2.09 mg/dL
same,Uric Acid Level (mean of all subjects in each group),"group D 800 mg orally once a day, Day 14 2 Hour",1.98 mg/dL
same,Uric Acid Level (mean of all subjects in each group),"group D 800 mg orally once a day, Day 14 3 Hour",1.94 mg/dL
same,Uric Acid Level (mean of all subjects in each group),"group D 800 mg orally once a day, Day 14 4 Hour",1.91 mg/dL
same,Uric Acid Level (mean of all subjects in each group),"group D 800 mg orally once a day, Day 14 6 Hour",2.07 mg/dL
same,Uric Acid Level (mean of all subjects in each group),"group D 800 mg orally once a day, Day 14 8 Hour",1.97 mg/dL
same,Uric Acid Level (mean of all subjects in each group),"group D 800 mg orally once a day, Day 14 10 Hour",1.91 mg/dL
same,Uric Acid Level (mean of all subjects in each group),"group D 800 mg orally once a day, Day 14 12 Hour",1.78 mg/dL
same,Uric Acid Level (mean of all subjects in each group),"group D 800 mg orally once a day, Day 14 16 Hour",1.73 mg/dL
same,Uric Acid Level (mean of all subjects in each group),"group D 800 mg orally once a day, Day 14 24 Hour",2.35 mg/dL
same,Uric Acid Level (mean of all subjects in each group),"group D 800 mg orally once a day, Day 21 0 Hour",2.30 mg/dL
same,Uric Acid Level (mean of all subjects in each group),"group D 800 mg orally once a day, Day 28 0 Hour",2.60 mg/dL
same,Uric Acid Level (mean of all subjects in each group),"group D 800 mg orally once a day, Day 28 0.05 Hour",2.60 mg/dL
same,Uric Acid Level (mean of all subjects in each group),"group D 800 mg orally once a day, Day 28 1 Hour",2.51 mg/dL
same,Uric Acid Level (mean of all subjects in each group),"group D 800 mg orally once a day, Day 28 2 Hour",2.40 mg/dL
same,Uric Acid Level (mean of all subjects in each group),"group D 800 mg orally once a day, Day 28 3 Hour",2.29 mg/dL
same,Uric Acid Level (mean of all subjects in each group),"group D 800 mg orally once a day, Day 28 4 Hour",2.28 mg/dL
same,Uric Acid Level (mean of all subjects in each group),"group D 800 mg orally once a day, Day 28 6 Hour",2.45 mg/dL
same,Uric Acid Level (mean of all subjects in each group),"group D 800 mg orally once a day, Day 28 8 Hour",2.36 mg/dL
same,Uric Acid Level (mean of all subjects in each group),"group D 800 mg orally once a day, Day 28 10 Hour",2.34 mg/dL
same,Uric Acid Level (mean of all subjects in each group),"group D 800 mg orally once a day, Day 28 12 Hour",2.36 mg/dL
same,Uric Acid Level (mean of all subjects in each group),"group D 800 mg orally once a day, Day 28 16 Hour",2.00 mg/dL
same,Uric Acid Level (mean of all subjects in each group),"group D 800 mg orally once a day, Day 28 24 Hour",2.56 mg/dL
same,Uric Acid Level (mean of all subjects in each group),"group D 800 mg orally once a day, Day 29 36 Hour after last dose on Day 28",2.78 mg/dL
same,Uric Acid Level (mean of all subjects in each group),"group D 800 mg orally once a day, Day 29 48 Hour after last dose on Day 28",2.47 mg/dL
same,Uric Acid Level (mean of all subjects in each group),"group D 800 mg orally once a day, Day 30 60 Hour after last dose on Day 28",3.06 mg/dL
same,Uric Acid Level (mean of all subjects in each group),"group D 800 mg orally once a day, Day 31 72 Hour after last dose on Day 28",3.74 mg/dL
same,Uric Acid Level (mean of all subjects in each group),"group D 800 mg orally once a day, Day 32 96 Hour after last dose on Day 28",4.53 mg/dL
same,Uric Acid Level (mean of all subjects in each group),"group D 800 mg orally once a day, Day 33 120 Hour after last dose on Day 28",4.87 mg/dL
same,Uric Acid Level (mean of all subjects in each group),"group D 800 mg orally once a day, Day 34 144 Hour after last dose on Day 28",4.94 mg/dL
same,Uric Acid Level (mean of all subjects in each group),"group D 800 mg orally once a day, Day 35 (last dose Day 28)",5.04 mg/dL
